# Test results reported in US4900757A, “Hypocholesterolemic and antiatherosclerotic uses of bix(3,5-di-tertiary-butyl-4-hydroxyphenylthio)methane” (Merrell Dow Pharmaceuticals Inc., priority 1988, dated 1990).
# Test system: human LDL
# Assay: Inhibition of LDL peroxidation (cupric sulfate, thiobarbituric acid assay; Example 3)
# Settings: 0.5 ml solution with 250 μg LDL; 30 min at 42° C; then cupric sulfate 12.5 μM, 37° C, 2.5 hours
row,SMILES,ID50 (dose required to inhibit 50% of LDL peroxidation)
1,CC(C)(C)c1cc(SCSc2cc(C(C)(C)C)c(O)c(C(C)(C)C)c2)cc(C(C)(C)C)c1O,6 µg
2,"CC(C)(Sc1cc(C(C)(C)C)c(O)c(C(C)(C)C)c1)Sc1cc(C(C)(C)C)c(O)c(C(C)(C)C)c1 [Probucol, 2,2'-bis(3,5-di-tertiary-butyl-4-hydroxyphenylthio)propane, reference compound]",12.5 µg
